# The supplement of paper PMC8728848
# This is one part of the list.
# B1: Cohesin-mDCIR (Macaca mulatta) (protein)
# chain: GLDDLDAVRIKVDTVNAKPGDTVRIPVRFSGIPSKGIANCDFVYSYDPNVLEIIEIEPGDIIVDPNPDKSFDTAVYPDRKIIVFLFAEDSGTGAYAITKDGVFATIVAKVKEGAPNGLSVIKFVEVGGFANNDLVEQKTQFFDGGVNVGDTTEPATPTTPVTTPTTTDDLDAASFQKYSQLLEKMTTKDLVHTTLECVKKNMTTEETAWSCCPKNWKPFSSNCYFISTESASWQKSEKDCARMEAHLLVINTREEQDFIFQNLQEESAYFVGLSDPEGQRHWQWVDRTPYNESSTFWHPHEPSDPDERCVVLNFRKTPKRWGWNDVHCIVHQRSVCEMMKIHLHHHHHH
# Columns and labels:
# Assay in all cases: glycan array binding signal (z-score within array); higher = stronger binding
# Conditions in all cases: glycan notation: IUPAC condensed, linker removed
# [1] = molecular target: Fuc(a1-2)Gal6S(b1-3)GlcNAc6S
# How it was run: (§1)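 Arrays were curated from the Consortium for Functional Glycomics database, 3228 in total, and kept only where the protein sequence was available. Binding is expressed as a within-array Z-score. This score was averaged across arrays of the same protein sequence at different concentrations or buffers and across linkers, and negative values can be read as non-binding.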
# [2] = molecular target: Fuc(a1-2)Gal6S(b1-4)Glc
# How it was run: as §1
# [3] = molecular target: Fuc(a1-2)Gal6S(b1-4)Glc6S
# How it was run: as §1
# [4] = molecular target: Fuc(a1-2)[Gal(a1-3)]Gal
# How it was run: as §1
# [5] = molecular target: Fuc(a1-2)[Gal(a1-3)]Gal(b1-3)GalNAc
# How it was run: as §1
# [6] = molecular target: Fuc(a1-2)[Gal(a1-3)]Gal(b1-3)GalNAc(b1-3)Gal(a1-4)Gal(b1-4)Glc
# How it was run: as §1
# [7] = molecular target: Fuc(a1-2)[Gal(a1-3)]Gal(b1-3)GlcNAc
# How it was run: as §1
# [8] = molecular target: Fuc(a1-2)[Gal(a1-3)]Gal(b1-3)GlcNAc(b1-2)Man(a1-3)[Fuc(a1-2)[Gal(a1-3)]Gal(b1-3)GlcNAc(b1-2)Man(a1-6)]Man(b1-4)GlcNAc(b1-4)GlcNAc
# How it was run: as §1
# [9] = molecular target: Fuc(a1-2)[Gal(a1-3)]Gal(b1-3)GlcNAc(b1-2)Man(a1-3)[Fuc(a1-2)[Gal(a1-3)]Gal(b1-3)GlcNAc(b1-2)Man(a1-6)]Man(b1-4)GlcNAc(b1-4)[Fuc(a1-6)]GlcNAc
# How it was run: as §1
# [10] = molecular target: Fuc(a1-2)[Gal(a1-3)]Gal(b1-3)GlcNAc(b1-3)GalNAc
# How it was run: as §1
# [11] = molecular target: Fuc(a1-2)[Gal(a1-3)]Gal(b1-3)GlcNAc(b1-6)GalNAc
# How it was run: as §1
# [12] = molecular target: Fuc(a1-2)[Gal(a1-3)]Gal(b1-4)Glc
# How it was run: as §1
# [13] = molecular target: Fuc(a1-2)[Gal(a1-3)]Gal(b1-4)GlcNAc
# How it was run: as §1
# [14] = molecular target: Fuc(a1-2)[Gal(a1-3)]Gal(b1-4)GlcNAc(b1-2)Man
# How it was run: as §1
# [15] = molecular target: Fuc(a1-2)[Gal(a1-3)]Gal(b1-4)GlcNAc(b1-2)Man(a1-3)[Fuc(a1-2)[Gal(a1-3)]Gal(b1-4)GlcNAc(b1-2)Man(a1-6)]Man(b1-4)GlcNAc(b1-4)GlcNAc
# How it was run: as §1
# [16] = molecular target: Fuc(a1-2)[Gal(a1-3)]Gal(b1-4)GlcNAc(b1-2)Man(a1-3)[Fuc(a1-2)[Gal(a1-3)]Gal(b1-4)GlcNAc(b1-2)Man(a1-6)]Man(b1-4)GlcNAc(b1-4)[Fuc(a1-6)]GlcNAc
# How it was run: as §1
# [17] = molecular target: Fuc(a1-2)[Gal(a1-3)]Gal(b1-4)GlcNAc(b1-3)GalNAc
# How it was run: as §1
# [18] = molecular target: Fuc(a1-2)[Gal(a1-3)]Gal(b1-4)GlcNAc(b1-3)[Fuc(a1-2)[Gal(a1-3)]Gal(b1-4)GlcNAc(b1-6)]GalNAc
# How it was run: as §1
# [19] = molecular target: Fuc(a1-2)[Gal(a1-3)]Gal(b1-4)GlcNAc(b1-6)GalNAc
# How it was run: as §1
# [20] = molecular target: Fuc(a1-2)[Gal(a1-3)]Gal(b1-4)[Fuc(a1-3)]Glc
# How it was run: as §1
# [21] = molecular target: Fuc(a1-2)[Gal(a1-3)]Gal(b1-4)[Fuc(a1-3)]GlcNAc
# How it was run: as §1
# [22] = molecular target: Fuc(a1-2)[Gal(a1-3)]Gal(b1-4)[Fuc(a1-3)]GlcNAc(b1-3)GalNAc
# How it was run: as §1
# [23] = molecular target: Fuc(a1-2)[Gal(a1-4)]Gal(b1-4)GlcNAc
# How it was run: as §1
# [24] = molecular target: Fuc(a1-2)[GalNAc(a1-3)]Gal
# How it was run: as §1
# [25] = molecular target: Fuc(a1-2)[GalNAc(a1-3)]Gal(b1-3)GalNAc(a1-3)[Fuc(a1-2)]Gal(b1-4)GlcNAc
# How it was run: as §1
# [26] = molecular target: Fuc(a1-2)[GalNAc(a1-3)]Gal(b1-3)GalNAc(b1-3)Gal(a1-4)Gal(b1-4)Glc
# How it was run: as §1
# [27] = molecular target: Fuc(a1-2)[GalNAc(a1-3)]Gal(b1-3)GlcNAc
# How it was run: as §1
# [28] = molecular target: Fuc(a1-2)[GalNAc(a1-3)]Gal(b1-3)GlcNAc(b1-2)Man(a1-3)[Fuc(a1-2)[GalNAc(a1-3)]Gal(b1-3)GlcNAc(b1-2)Man(a1-6)]Man(b1-4)GlcNAc(b1-4)GlcNAc
# How it was run: as §1
# [29] = molecular target: Fuc(a1-2)[GalNAc(a1-3)]Gal(b1-3)GlcNAc(b1-2)Man(a1-3)[Fuc(a1-2)[GalNAc(a1-3)]Gal(b1-3)GlcNAc(b1-2)Man(a1-6)]Man(b1-4)GlcNAc(b1-4)[Fuc(a1-6)]GlcNAc
# How it was run: as §1
# [30] = molecular target: Fuc(a1-2)[GalNAc(a1-3)]Gal(b1-3)GlcNAc(b1-3)GalNAc
# How it was run: as §1
# [31] = molecular target: Fuc(a1-2)[GalNAc(a1-3)]Gal(b1-3)GlcNAc(b1-6)GalNAc
# How it was run: as §1
# [32] = molecular target: Fuc(a1-2)[GalNAc(a1-3)]Gal(b1-4)Glc
# How it was run: as §1
# [33] = molecular target: Fuc(a1-2)[GalNAc(a1-3)]Gal(b1-4)GlcNAc
# How it was run: as §1
# [34] = molecular target: Fuc(a1-2)[GalNAc(a1-3)]Gal(b1-4)GlcNAc(b1-2)Man
# How it was run: as §1
# [35] = molecular target: Fuc(a1-2)[GalNAc(a1-3)]Gal(b1-4)GlcNAc(b1-2)Man(a1-3)[Fuc(a1-2)[GalNAc(a1-3)]Gal(b1-4)GlcNAc(b1-2)Man(a1-6)]Man(b1-4)GlcNAc(b1-4)GlcNAc
# How it was run: as §1
# [36] = molecular target: Fuc(a1-2)[GalNAc(a1-3)]Gal(b1-4)GlcNAc(b1-2)Man(a1-3)[Fuc(a1-2)[GalNAc(a1-3)]Gal(b1-4)GlcNAc(b1-2)Man(a1-6)]Man(b1-4)GlcNAc(b1-4)[Fuc(a1-6)]GlcNAc
# How it was run: as §1
# [37] = molecular target: Fuc(a1-2)[GalNAc(a1-3)]Gal(b1-4)GlcNAc(b1-3)Gal(b1-4)GlcNAc
# How it was run: as §1
# [38] = molecular target: Fuc(a1-2)[GalNAc(a1-3)]Gal(b1-4)GlcNAc(b1-3)Gal(b1-4)GlcNAc(b1-3)Gal(b1-4)GlcNAc
# How it was run: as §1
# [39] = molecular target: Fuc(a1-2)[GalNAc(a1-3)]Gal(b1-4)GlcNAc(b1-3)GalNAc
# How it was run: as §1
# [40] = molecular target: Fuc(a1-2)[GalNAc(a1-3)]Gal(b1-4)GlcNAc(b1-3)[Fuc(a1-2)[GalNAc(a1-3)]Gal(b1-4)GlcNAc(b1-6)]GalNAc
# How it was run: as §1
# [41] = molecular target: Fuc(a1-2)[GalNAc(a1-3)]Gal(b1-4)GlcNAc(b1-6)GalNAc
# How it was run: as §1
# [42] = molecular target: Fuc(a1-2)[GalNAc(a1-3)]Gal(b1-4)[Fuc(a1-3)]GlcNAc
# How it was run: as §1
# [43] = molecular target: Fuc(a1-2)[GalNAc(a1-3)]Gal(b1-4)[Fuc(a1-3)]GlcNAc(b1-3)GalNAc
# How it was run: as §1
# [44] = molecular target: Fuc(a1-2)[GalNAc(a1-4)]Gal(b1-4)GlcNAc
# How it was run: as §1
# [45] = molecular target: Fuc(a1-2)[GalNAc(b1-3)]Gal
# How it was run: as §1
binder,measurement,setting,value
B1,glycan array binding signal (z-score),[1],0.098
same,glycan array binding signal (z-score),[2],-0.432
same,glycan array binding signal (z-score),[3],-0.051
same,glycan array binding signal (z-score),[4],-0.365
same,glycan array binding signal (z-score),[5],-0.348
same,glycan array binding signal (z-score),[6],-0.472
same,glycan array binding signal (z-score),[7],3.96
same,glycan array binding signal (z-score),[8],-0.37
same,glycan array binding signal (z-score),[9],-0.435
same,glycan array binding signal (z-score),[10],-0.241
same,glycan array binding signal (z-score),[11],0.926
same,glycan array binding signal (z-score),[12],0.341
same,glycan array binding signal (z-score),[13],-0.349
same,glycan array binding signal (z-score),[14],-0.085
same,glycan array binding signal (z-score),[15],-0.297
same,glycan array binding signal (z-score),[16],-0.409
same,glycan array binding signal (z-score),[17],-0.393
same,glycan array binding signal (z-score),[18],-0.272
same,glycan array binding signal (z-score),[19],-0.44
same,glycan array binding signal (z-score),[20],-0.284
same,glycan array binding signal (z-score),[21],-0.107
same,glycan array binding signal (z-score),[22],-0.416
same,glycan array binding signal (z-score),[23],-0.141
same,glycan array binding signal (z-score),[24],-0.086
same,glycan array binding signal (z-score),[25],-0.303
same,glycan array binding signal (z-score),[26],-0.373
same,glycan array binding signal (z-score),[27],0.055
same,glycan array binding signal (z-score),[28],0.099
same,glycan array binding signal (z-score),[29],-0.122
same,glycan array binding signal (z-score),[30],-0.237
same,glycan array binding signal (z-score),[31],1.81
same,glycan array binding signal (z-score),[32],-0.37
same,glycan array binding signal (z-score),[33],-0.148
same,glycan array binding signal (z-score),[34],-0.101
same,glycan array binding signal (z-score),[35],-0.185
same,glycan array binding signal (z-score),[36],-0.321
same,glycan array binding signal (z-score),[37],-0.448
same,glycan array binding signal (z-score),[38],-0.403
same,glycan array binding signal (z-score),[39],-0.338
same,glycan array binding signal (z-score),[40],-0.318
same,glycan array binding signal (z-score),[41],5.37
same,glycan array binding signal (z-score),[42],-0.267
same,glycan array binding signal (z-score),[43],-0.088
same,glycan array binding signal (z-score),[44],2.24
same,glycan array binding signal (z-score),[45],3.27
